{
  "source": "paper PMC5522996",
  "about": "“Big conductance calcium‐activated potassium channel openers control spasticity without sedation” (British Journal of Pharmacology, 2017)",
  "key": {"[1]": {"biological_target": "T1, D1 (Homo sapiens, UniProt P21728)", "T1 construct": "purchased Cerep; Chantest; DiscoveRx; Multispan; MDS Pharma Services", "T1 sequence (P21728 whole entry)": "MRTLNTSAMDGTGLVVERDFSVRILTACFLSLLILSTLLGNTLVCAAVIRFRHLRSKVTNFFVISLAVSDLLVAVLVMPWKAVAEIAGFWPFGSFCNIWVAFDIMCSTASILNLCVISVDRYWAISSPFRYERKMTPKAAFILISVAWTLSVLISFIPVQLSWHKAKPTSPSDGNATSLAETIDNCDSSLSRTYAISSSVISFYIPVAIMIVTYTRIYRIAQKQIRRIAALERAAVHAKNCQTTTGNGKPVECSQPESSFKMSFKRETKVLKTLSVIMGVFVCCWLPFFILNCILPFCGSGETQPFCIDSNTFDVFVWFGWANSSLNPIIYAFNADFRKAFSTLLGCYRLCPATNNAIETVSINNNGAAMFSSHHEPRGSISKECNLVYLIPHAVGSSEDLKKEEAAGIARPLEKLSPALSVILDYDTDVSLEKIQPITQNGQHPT", "assay": "Receptor binding profile of VSN16R", "settings": "10µM VSN16R"}, "[2]": {"tested_on": "healthy humans", "assay": "Phase I single dose: heart rate and blood pressure supine/standing"}, "[3]": {"biological_target": "T2, hGPR55 (HEK293.GPR55) (Homo sapiens, UniProt Q9Y2T6)", "T2 construct": "expressed in transfected cells; host or cells: HEK293", "T2 sequence (Q9Y2T6 whole entry)": "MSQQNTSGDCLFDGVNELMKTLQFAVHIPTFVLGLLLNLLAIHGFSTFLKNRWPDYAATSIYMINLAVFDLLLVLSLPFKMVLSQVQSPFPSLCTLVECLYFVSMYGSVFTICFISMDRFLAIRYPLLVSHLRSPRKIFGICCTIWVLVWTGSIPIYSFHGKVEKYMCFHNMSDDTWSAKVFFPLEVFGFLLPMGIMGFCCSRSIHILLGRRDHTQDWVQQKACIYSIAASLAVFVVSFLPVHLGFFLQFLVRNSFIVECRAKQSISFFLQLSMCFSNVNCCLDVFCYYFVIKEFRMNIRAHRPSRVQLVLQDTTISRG", "assay": "Ca2+ Ion Flux assay, HEK293.GPR55", "format": "cell-based", "settings": "max. tested 10μM"}, "[4]": {"biological_target": "T3, GAL2 (Homo sapiens, UniProt O43603)", "T3 construct": "purchased Cerep; Chantest; DiscoveRx; Multispan; MDS Pharma Services", "T3 sequence (O43603 1-387)": "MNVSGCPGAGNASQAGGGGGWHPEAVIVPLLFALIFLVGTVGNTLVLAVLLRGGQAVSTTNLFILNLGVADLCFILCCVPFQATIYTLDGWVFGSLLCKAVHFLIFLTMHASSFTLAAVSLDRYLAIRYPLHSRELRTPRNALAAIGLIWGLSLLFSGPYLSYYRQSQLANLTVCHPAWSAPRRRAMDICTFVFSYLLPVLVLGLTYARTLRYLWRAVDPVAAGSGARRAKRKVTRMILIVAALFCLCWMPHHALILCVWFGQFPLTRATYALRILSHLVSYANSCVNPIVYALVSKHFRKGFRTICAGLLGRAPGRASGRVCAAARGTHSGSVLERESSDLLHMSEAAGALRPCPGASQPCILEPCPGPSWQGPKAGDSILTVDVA", "assay": "Receptor binding profile of VSN16R", "settings": "10µM VSN16R"}},
  "data": [
    {"molecule": "C[C@H](CO)NC(=O)c1cccc(/C=C\\CCCC(=O)N(C)C)c1", "note": "[VSN16R]", "values": [
      {"measurement": "Activity", "setting": "[1]", "value": "Negligible Activity"},
      {"measurement": "Heart Rate Standing", "setting": "[2]; 25mg, 30min", "value": "72 ± 8", "unit": "bpm"},
      {"measurement": "Heart Rate Supine", "setting": "[2]; 25mg, 30min", "value": "55 ± 10", "unit": "bpm"},
      {"measurement": "Systolic Blood Pressure Standing", "setting": "[2]; 25mg, 30min", "value": "120 ± 6", "unit": "mm Hg"},
      {"measurement": "Diastolic Blood Pressure Supine", "setting": "[2]; 25mg, 60min", "value": "63 ± 6", "unit": "mm Hg"},
      {"measurement": "Heart Rate Standing", "setting": "[2]; 25mg, 60min", "value": "75 ± 9", "unit": "bpm"},
      {"measurement": "Systolic Blood Pressure Standing", "setting": "[2]; 25mg, 60min", "value": "119 ± 8", "unit": "mm Hg"},
      {"measurement": "Diastolic Blood Pressure Supine", "setting": "[2]; 800mg, 30min", "value": "68 ± 14", "unit": "mm Hg"},
      {"measurement": "Heart Rate Standing", "setting": "[2]; 800mg, 30min", "value": "81 ± 10", "unit": "bpm"},
      {"measurement": "Heart Rate Supine", "setting": "[2]; 800mg, 30min", "value": "57 ± 6", "unit": "bpm"},
      {"measurement": "Systolic Blood Pressure Standing", "setting": "[2]; 800mg, 30min", "value": "120 ± 6", "unit": "mm Hg"},
      {"measurement": "Diastolic Blood Pressure Supine", "setting": "[2]; 800mg, 60min", "value": "72 ± 8", "unit": "mm Hg"},
      {"measurement": "Heart Rate Standing", "setting": "[2]; 800mg, 60min", "value": "84 ± 11", "unit": "bpm"},
      {"measurement": "Activity of VSN16R (Max. Tested)", "setting": "[3]", "value": "No Activity"},
      {"measurement": "Activity", "setting": "[4]", "value": "Negligible Activity"}
    ]}
  ]
}
